# Reference: PubChem BioAssay AID1508642 (National Center for Advancing Translational Sciences (NCATS), 2021)
# Hit rate of the full screen: of about 43,000 compounds, about 200 (0.47%) were called active. About 12% were inconclusive and are not listed. Calls come from the whole dose curve; as a rule, active = well fitted cell-killing curve with a large enough effect; inconclusive = small, poorly fitted or top-dose-only effect, or effect the other way; inactive = flat fitted curve, though single readings scatter. This is one part of the list.
# Test: Cell viability qHTS assay in S16 Pmp22-F2sN cells; note: nearly all actives have a fitted effect of over 65% in size
# Details: S16 Pmp22-F2sN Schwann cells (luciferase reporters placed in the Pmp22 gene) viability, CellTiter-Glo, 24 h; series mostly up to 57.5 µM; activity change, negative = cytotoxicity: at the top concentration
# Procedure, shortened: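 Seed 500-1,000 S16 Pmp22-F2sN cells per well in phenol-red-free DMEM with 10% heat-inactivated FBS; pin-add 23 nL compound; incubate 24 h at 37C; add CellTiter-Glo, wait 15 min protected from light; read luminescence.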
# % is set by controls: 0 for no effect and ±100 for the full control effect.
row,SMILES,"activity change, negative = cytotoxicity"
1,O=C(CSc1nnc2[nH]c(=O)cc(-c3ccccc3)n12)Nc1ccc(OC(F)(F)F)cc1,inactive: -0.246%
2,COc1ccc(CNC(=O)CC2N=C3c4ccccc4N=C(SCC(=O)Nc4ccc(C(C)C)cc4)N3C2=O)cc1 (stereo not drawn),inactive: 3.32%
3,COC(=O)CCCn1c(-c2ccc(C)cc2)c(C)n2c3c(=O)n(C)c(=O)n(C)c3nc12,inactive: 5.9%
4,COc1ccc(-c2cn3c(n2)sc2cc(C(=O)NC(C)C45CC6CC(CC(C6)C4)C5)ccc23)cc1 (stereo not drawn),inactive: 9.48%
5,CCN1CCSc2ccc(C(=O)NCc3ccc(F)cc3)cc21,inactive: -3.63%
6,COc1ccc(CNC(=O)Cn2ncc3c(=O)oc4ccccc4c32)c(OC)c1,inactive: -5.28%
7,Cc1ccc(CNC(=O)CCSCc2cnn(-c3ccccc3)c2-n2cccc2)cc1,inactive: 2.05%
8,COc1ccc(NCc2cccn2-c2nnc(N3CCOCC3)s2)cc1OC,inactive: -1.6%
9,COc1ccc(S(=O)(=O)NCCc2sc(-c3cccnc3)nc2C)cc1OC,inactive: 0.155%
10,COc1cc(CN(C(=O)c2ccccc2Br)c2ccccn2)cc(OC)c1OC,inactive: -14.1%
11,CC(=O)c1c(C)n(S(=O)(=O)c2ccc(Cl)cc2)c2ccc(NS(=O)(=O)c3ccc(Cl)cc3)cc12,inactive: 2.2%
12,Cc1cc(C)cc(NC(=O)Cn2nc(N3CCN(c4ccccc4)CC3)ccc2=O)c1,inactive: -1.28%
13,CC(C)c1ccc(OCC(=O)Nc2cc(-c3ccccc3)no2)cc1,inactive: 29.3%
14,CCOc1cc2c(cc1OCC)C(CC(=O)OC)N(C(=O)Nc1cc(OC)ccc1OC)CC2 (stereo not drawn),inactive: -22.6%
15,CCN(CC)C(=O)c1sc2c(c1C)c(=O)n(CCc1ccccc1)c(=O)n2Cc1ccc(C)cc1,inactive: -1.22%
16,Cc1ccc(NC(=O)CN2C(=O)C(c3ccc(C)cc3)=NC23CCCCCC3)cc1,inactive: -28.4%
17,CCc1ccc(NC(=O)c2cccc(N3CCCS3(=O)=O)c2)cc1,inactive: -6.03%
18,COc1ccc2c(c1)c(=O)c(S(=O)(=O)c1ccc(Cl)cc1)cn2Cc1cc(C)ccc1C,inactive: -1.23%
19,CC(=O)Nc1ccc(NC(=O)C(NC(=O)C2CCC(C)CC2)C(C)C)cc1 (stereo not drawn),inactive: -2.73%
20,CCc1ccccc1NC(=O)c1nn(-c2ccc(C)cc2)c(=O)c2c1c1ccccc1n2C,inactive: -2.24%
21,CC(C)c1cc(C(=O)NCc2ccc(F)cc2)no1,inactive: 8.43%
22,CCS(=O)(=O)n1nc(-c2ccco2)nc1NCc1ccc(C(C)C)cc1,inactive: -11%
23,O=C(Nc1ccc(F)cc1)c1ccc(CN2CC(=O)N3CCCCC3C2=O)cc1 (stereo not drawn),inactive: -1.04%
24,Cc1ccc(-n2cnc3cc(C(=O)NC4CCCCCC4)ccc32)c(C)c1,inactive: -4.4%

row,SMILES,"activity change, negative = cytotoxicity"
1,O=C(Nc1ccccc1C(F)(F)F)C1(S(=O)(=O)c2ccc(Cl)cc2)CC1,inactive: 1.6%
2,CN1CC(=O)N(CC(=O)Nc2cccc(C#N)c2)c2ccccc2C1=O,inactive: 15.6%
3,COc1ccc(OC)c(NC(=O)C2CCCN(S(=O)(=O)c3ccc4[nH]c(=O)ccc4c3)C2)c1 (stereo not drawn),inactive: -6.86%
4,CC(=O)c1cccc(NC(=O)CCS(=O)(=O)c2ccc3c(c2)n(C)c(=O)c(=O)n3C)c1,inactive: -3.95%
5,NC(=O)CSc1nc2cc3c(cc2c(=O)n1CCCCCC(=O)NCc1ccc2c(c1)OCO2)OCO3,inactive: -9.88%
6,CCCCCCNC(=O)CCc1c(C)nc2nc(-c3cc(OC)cc(OC)c3)nn2c1C,inactive: 2.69%
7,Cc1ccc(C(=O)c2cn(Cc3cc(C)ccc3C)c3nc(C)ccc3c2=O)cc1,inactive: -8.21%
8,CN(C1CCCCC1)S(=O)(=O)c1ccc2c(c1)c(=O)c(C(=O)N1CCN(c3ccc(F)cc3)CC1)cn2C,inactive: 1.25%
9,CCOCCCNC(=O)C(NC(=O)C1CCC(C)CC1)C(C)C (stereo not drawn),inactive: 4.98%
10,COc1ccc(-c2cn3c(n2)sc2cc(C(=O)NCC(C)c4ccccc4)ccc23)cc1 (stereo not drawn),inactive: 10.2%
11,Cc1c(Cl)cccc1NC(=O)Nc1nnc(N(C)C2CCCCC2)s1,inactive: 1.63%
12,Cc1ccc(CCNC(=O)c2cnc3c(C)cccn3c2=O)cc1,inactive: 12.1%
13,Cc1ccccc1Cn1c(-c2cccs2)nc2ccccc21,inactive: -2.14%
14,COc1ccc(-c2noc(CN(C(=O)c3ccccc3Cl)C(C)C)n2)cc1,inactive: -15.7%
15,Cc1ccn2c(Nc3ccccc3C)c(-c3ccncc3)nc2c1,inactive: -0.598%
16,CCN(CCN(C)C)C(=O)Cn1ncc2c([nH]c3ccc(C)cc32)c1=O,inactive: 18.2%
17,Cc1ccc(CNC(=O)C2CCN(Cc3nc(-c4ccccc4C)oc3C)CC2)cc1,inactive: 0.388%
18,CCCCn1c(CN2CCN(c3ccc(OC)cc3)CC2)nc2c1c(=O)[nH]c(=O)n2C,inactive: -3.18%
19,Cc1cccc(NC(=O)CSc2nnc(CNC(=O)c3cccc(C)c3)n2-c2ccccc2)c1,inactive: -1.29%
20,CCOc1ccc(CNC(=O)CCC(=O)N2Cc3ccccc3Oc3ncccc32)cc1,inactive: 13.2%
21,Cc1ccc2nc(CSc3nnc(NC(=O)CC(C)C)s3)cc(=O)n2c1,inactive: 7.85%
22,O=C(Nc1ccc(OC(F)(F)F)cc1)c1cc2c(=O)n3ccccc3nc2s1,inactive: -14.8%
23,CCS(=O)(=O)N1CCc2cc(C(=O)Nc3cc([N+](=O)[O-])ccc3C)ccc21,inactive: 2.83%
24,CCOc1ccccc1NC(=O)c1ccc2c(c1)CCN2S(C)(=O)=O,inactive: -9.39%
